Reference: ChEMBL document CHEMBL4888484, “Replenishing the malaria drug discovery pipeline: Screening and hit evaluation of the MMV Hit Generation Library 1 (HGL1) against asexual blood stage Plasmodium falciparum ,using a nano luciferase reporter read-out” (2022)
In all, about 4,800 compounds went through this assay and about 410 (8.5%) showed an effect of 50% or more. This is one part of the list.

tested on: Plasmodium falciparum; test: Confirmatory screen in NF54 pLDH assay, in single point, at 2uM, 72h; type: functional, Erythrocyte; conditions: timepoint 72 hour

| Structure (SMILES) | % Inhibition [%] |
| --- | --- |
| Cc1cccc(NS(=O)(=O)c2cc(C(=O)NCc3ccc4c(c3)OCO4)ccc2Cl)c1C | 7 |
| Cc1cc2c(cc1C)O[C@H](C(=O)Nc1nnn[nH]1)C2 | -8 |
| Cc1nn(-c2nc3ccccc3[nH]2)c2c1[C@@H](c1cccnc1)CC(=O)N2 | 79 |
| Cc1nn(-c2ncccn2)c2c1[C@@H](c1ccccc1)CC(=O)N2 | -15 |
| O=C(Nc1nc(CCc2c[nH]c3ccccc23)n[nH]1)c1cccnc1 | 12 |
| Cc1cccc(C2(c3cccc(C)c3)c3ccccc3/C(=N\c3ccccc3)N2c2ccccc2)c1 | 15 |
| O=C(N[C@H]1CC[C@@H]2CCC[C@@H]21)c1c[nH]c(=O)c(Cl)c1 | 25 |
| Clc1ccc(Cn2cc(CNCCCn3ccnc3)c3ccccc32)c(Cl)c1 | 100 |
| O=C(c1ccccc1)C1C(c2ccccc2)N1C(=O)c1ccc(Cl)cc1Cl (configuration not stated) | 6 |
| Cc1ccc(-c2ccnc3c(C(=O)N4CCOCC4)cnn23)cc1C | 2 |
| CC(C)c1cc(NS(=O)(=O)c2ccc3c(c2)OCCCO3)[nH]n1 | -17 |
| O=C(c1ccco1)N1CC(n2cnnc2[C@@H]2CCCO2)C1 | -1 |
| CCOc1cccc(Cn2c(=O)c3sccc3n(CC(=O)Nc3ccccc3)c2=O)c1 | 14 |
| NC(=O)CN1CCCN(C(=O)c2cnc3ccccc3n2)CC1 | 10 |
| O=C(c1ccoc1-c1ccccc1O)N1CCOCC1 | -10 |
| Clc1ccc(OCc2ccc(-c3nc4c5cn[nH]c5ncn4n3)cc2)c(Cl)c1 | -10 |
| O=C(C[C@H]1CCN(C(=O)Nc2ccccc2)C1)NC1CC1 | -4 |
| CC(NC(=O)N1CCCCC1)(C(F)(F)F)C(F)(F)F | 14 |
| CN(CC(=O)N(C)C1CCC(c2ccccc2)CC1)c1cnccn1 (configuration not stated) | -5 |
| COc1ccc(CCNC(=O)c2cc3c(=O)[nH]c(C)cn3n2)cc1OC | 8 |
| CC(=O)N(Cc1ccccc1)c1ccc2c(c1)nc(Cn1nc(C)cc1C)n2C | 5 |
| COc1ccc(C)cc1NC(=O)N1CC[C@@]2(C1)Nc1cccnc1N=C2NC1CCCC1 | -2 |
| Cc1cc(C)nc([C@@H](C#N)C(=O)c2ccnc(OCC(F)F)c2)n1 | -19 |
| CC1(C(=O)N[C@H]2CCO[C@H](c3ccccn3)C2)CC1F (some centres not stated) | 4 |
| O=S(=O)(Cc1ccccc1)N1CCC2(CCCCC2)C1 | 6 |
| CCCc1nc(N2CCCN(C(=O)C3CCCCC3)CC2)c2c(C)nn(-c3ccccc3)c2n1 | 10 |

| Structure (SMILES) | % Inhibition [%] |
| --- | --- |
| Cc1ccc(N2C(=O)NC3c4ccccc4OC2(C)C3C(=O)Nc2ccc(Cl)cc2)cc1Cl (configuration not stated) | -8 |
| COCCS(=O)(=O)Nc1ccc(Br)c(C)n1 | -19 |
| CCOc1ccccc1NC(=O)Cc1c(C)nc2nc(-c3cccnc3)nn2c1C | 3 |
| CC(C)N(C)c1ccc(NC(=O)C2=NN(C)C(=O)CC2)cc1F | 4 |
| O=C(NCc1ccoc1)NCC1(c2ccccc2)CC1 | -14 |
| O=C(Nc1ccc(N2CCCC2)c(F)c1)C(=O)Nc1ccon1 | -13 |
| CNC(=O)c1ccc(N(C)Cc2ccc(O)cc2)nn1 | 9 |
| Cc1cccc2ncnc(N(C)[C@@H](C)Cc3ccc(O)cc3)c12 | 84 |
| Cc1ccc(C(=O)N2CC(C)CC(C)C2)cc1NCc1ncc[nH]1 (configuration not stated) | 8 |
| CC(C)Cc1nsc(N2CCOC3CCN(C)CC32)n1 (configuration not stated) | 11 |
| CN(C)c1ccc(NC(=O)C2(N(Cc3ccccc3)C(=O)Cn3nnc4ccccc43)CCCCC2)cc1 | -8 |
| Fc1ccc(-c2cc3c(N4CCCCCC4)nccn3n2)cc1 | 10 |
| O=C(CCCC(=O)C1CC1)NC[C@H]1CCCOC1 | -12 |
| Cc1cc2nc(C)c(=O)n(Cc3ccc(C(=O)NCCN4CCCC[C@@H]4C)cc3)c2cc1C | 35 |
| CN(C)CCCNCc1ccc(Cl)cc1Cl | -7 |
| CCn1ncc(-c2cc(C(F)(F)F)c3c(C(C)C)nn(-c4ccc(F)cc4)c3n2)c1C | -1 |
| Cn1c(-c2ccc(Cl)c(Cl)c2)c[n+](CC(=O)c2ccc(-c3ccccc3)cc2)c1N | 9 |
| COc1ncnc(OC)c1C(=O)N1CCC[C@H]1C=Cc1ccccc1 | -8 |
| CC(=O)c1cccc(NC(=O)c2nonc2C)c1 | -11 |
| CCCn1nc(-n2cnnc2)c(NS(=O)(=O)c2ccc(OC)c(OC)c2)c1C | 13 |
| C[C@H]1CCc2c(cnc3c(C(=O)NC4CC4)cnn23)C1 | 2 |
| CC(C)C1(CNC(=O)C(=O)c2cc(S(N)(=O)=O)cn2C)CC1 | 11 |
| CCc1ccccc1NC(=O)Cn1cnc2nc(N(C)Cc3ccccc3)sc2c1=O | -15 |
| Cc1ccc(N2CCCN(Cc3ccc(C(C)C)cc3)C2=O)c(NC(=O)c2ccco2)c1 | 11 |
| CCc1nc2cc(-c3noc(Cc4ccc(Cl)cc4)n3)ccc2o1 | 2 |
| Cc1noc2ncc(C(=O)N3C[C@H](C)OC(C)(C)C3)cc12 | 11 |

| Structure (SMILES) | % Inhibition [%] |
| --- | --- |
| CCCNC(=O)CNC(=NC1CC1)NCc1ccccc1C | 1 |
| O=C1C2C3CCCCN3C3(C(=O)N(Cc4ccc(F)cc4)c4ccccc43)C2C(=O)N1c1ccccc1 (configuration not stated) | 6 |
| C[C@H]1CCc2c(cnc3c(C(=O)NCc4ccccc4)cnn23)C1 | 0 |
| c1ccc(-n2ncnc2[C@@H]2COCCN2)cc1 | 11 |
| CCCn1nccc1C(=O)NCCCn1ncc2c(C)cccc21 | 0 |
| O=C(Cn1nnc2ccccc21)N(Cc1ccccc1)C1(C(=O)Nc2ccc3c(c2)OCO3)CCCCC1 | -13 |
| O=C(NC[C@H]1CCCO1)N1CCN(c2nccs2)C(=O)C1 | 9 |
| CC[C@H](N)C(=O)N(CC1CC1C)C(C)C (some centres not stated) | 9 |
| O=C(CN1C(=O)C[C@H](Cc2ccc(F)cc2)C1=O)N1CCNC1=O | 9 |
| CC(C)NC(=O)CN1CCC2(CC1)NC(c1ccc(OC(F)(F)F)cc1)=NO2 | 4 |
| O=C(Nc1ccc2c(c1)OCO2)[C@@H](c1cccc(F)c1)N(Cc1ccc(F)cc1)C(=O)Cn1nnc2ccccc21 | 1 |
| CCOc1ncccc1CNC(=O)CNC(C)=O | 13 |
| O=C1Nc2ccc(Br)cc2C1=O | 13 |
| CC(C)n1[nH]c(=O)c2c1NC(=O)C[C@@H]2c1cccc2nccnc12 | 11 |
| COc1ccc(C2(NCc3cc(O)cc(Cl)c3)CCOCC2)cc1 | 1 |
| CCN(CC)c1ccc(C(=O)OCC(=O)NC(C)(C)C)cc1 | -6 |
| COc1ccc2nc(C)c(C(=O)N3CC(OCC(F)F)C3)n2n1 | -7 |
| Oc1c(Br)cc(Br)cc1/C=C/c1ccc(CN2CCOCC2)cc1 | -4 |
| N#CCC(=O)NC1CCC(CC2CCC(NC(=O)CC#N)CC2)CC1 (configuration not stated) | -2 |
| COc1cccc(N2C(=O)C[C@]3(CC3(c3ccccc3)c3ccccc3)C2=O)c1 | 1 |
| Clc1cccc(CNc2cc(-c3ccco3)n[nH]2)c1 | -3 |
| O=C(c1cn[nH]c1-c1ccccc1)N1CCCCC1 | -7 |
| Oc1cccc(CN[C@H]2CCCc3occc32)c1Cl | 83 |
| COc1cc(OC)c(NC(=O)c2cnn3c4c(cnc23)CCCCCC4)cc1Cl | 12 |
| CCc1ccc(NC(=O)[C@H]2CCCN(c3nc4cccnc4n(Cc4ccccc4)c3=O)C2)cc1 | -14 |
| COc1cc(OC)cc(C(=O)Nc2cnc(N3CCCCC3)c(C)c2)c1 | 7 |

| Structure (SMILES) | % Inhibition [%] |
| --- | --- |
| Cc1c(C)n(C[C@@H](O)CNC2CCCC2)c2c(Cl)cccc12 | -18 |
| CCC(C)C(NC(=O)c1ccccc1NC(=O)c1ccco1)C(=O)N1CCCCCC1 (configuration not stated) | -6 |
| COc1ccc(N[C@@H](C)C(=O)NC(=O)NC2CC2)c(OC)c1 | 4 |
| O=C(NCc1ccc(S(=O)(=O)N2CCCC2)cc1)c1cc[nH]n1 | 0 |
| COc1cccc(-c2cc3c(N4CCC5(CC4)OCCO5)nccn3n2)c1 | 3 |
| CCCCN(C(=O)c1ccccc1)C(=O)c1ccccc1 | 2 |
| Cc1ccc(COc2cccc(CNC3CC3)c2)cc1 | -1 |
| O=C(O)C1CC1C(=O)N1CCN(c2ccc(Cl)c(Cl)c2)CC1 (configuration not stated) | 5 |
| CCOC1CC2(CCN(Cc3cc(Cl)c(OC)cc3Cl)C2)C1 (configuration not stated) | 13 |
| CCCC1CCC(OC(=O)c2ccc(C(=O)OC3CCC(CCC)CC3)nc2)CC1 (configuration not stated) | 8 |
| C[C@H]1CCCCN1CCNC(=O)c1cc2c(s1)N(C)CCCC2 | -15 |
| CC1(CN2CCOCC2)CCN(CC(=O)N2CCc3sccc3C2)CC1 | 9 |
| OC[C@H]1CCc2nnc(C(F)F)n2C1 | 11 |
| Cc1cc(C)c(S(=O)(=O)N2CCC(C)(C(=O)NCc3ccc4c(c3)OCO4)CC2)cc1C | 9 |
| Cc1cc(C)cc(-c2cc3nc(C)cc(N4CCC(C(=O)NCc5cccc(F)c5)CC4)n3n2)c1 | 67 |
| O=c1[nH]c2nc(N3CCN(c4ncccn4)CC3)ncc2c(=O)n1Cc1ccco1 | -12 |
| Cc1cc(C#N)cc(C)c1Oc1nc(Nc2ccc(C#N)cc2Br)nc(N)c1Br | -4 |
| COc1ccc([C@@]2(C)NC(=O)N(CC(=O)N3CC(=O)Nc4ccccc43)C2=O)cc1OC | 13 |
| CCCOc1ccc(Nc2cc(C)nc3ccc(Cl)cc23)cc1 | 63 |
| CN1CN(C(=O)c2cc(C#N)cn2C)CC1=O | -7 |
| CC[C@H](C)NC(=O)c1cn(-c2cccc(C)n2)cn1 | 13 |
| CC(C)(C)C(=O)NCCNC(=O)c1ccccn1 | 13 |
| Cc1c(N2CCC(C(=O)NCCN3CCOCC3)CC2)c(=O)n(CC(C)C)c(=O)n1-c1ccccc1 | 6 |
| COC(=O)[C@@H](NC(=O)NC1CCCCC1)C(C)(C)C | 8 |
